Test results from the supplement of paper PMC8728848.
This is one part of the list.

What was measured:
Assay in all cases: glycan array binding signal (z-score within array); higher = stronger binding
Settings in all cases: glycan notation: IUPAC condensed, linker removed
Gal3S(b1-4)Glc = target: Gal3S(b1-4)Glc
Summary of the method: (§1)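 Arrays were curated from the Consortium for Functional Glycomics database, 3228 in total, and kept only where the protein sequence was available. Binding is expressed as a within-array Z-score. This score was averaged across arrays of the same protein sequence at different concentrations or buffers and across linkers, and negative values can be read as non-binding.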

Gal3S(b1-4)Glc6S = target: Gal3S(b1-4)Glc6S
Summary of the method: as §1

Gal3S(b1-4)GlcNAc = target: Gal3S(b1-4)GlcNAc
Summary of the method: as §1

Gal3S(b1-4)GlcNAc6S = target: Gal3S(b1-4)GlcNAc6S
Summary of the method: as §1

Gal3S6S(b1-4)GlcNAc = target: Gal3S6S(b1-4)GlcNAc
Summary of the method: as §1

Gal3S6S(b1-4)GlcNAc6S = target: Gal3S6S(b1-4)GlcNAc6S
Summary of the method: as §1

Gal4S(b1-4)GlcNAc = target: Gal4S(b1-4)GlcNAc
Summary of the method: as §1

Gal4S6S(b1-4)GlcNAc = target: Gal4S6S(b1-4)GlcNAc
Summary of the method: as §1

Gal6S(b1-4)Glc = target: Gal6S(b1-4)Glc
Summary of the method: as §1

Gal6S(b1-4)Glc6S = target: Gal6S(b1-4)Glc6S
Summary of the method: as §1

Gal6S(b1-4)GlcNAc = target: Gal6S(b1-4)GlcNAc
Summary of the method: as §1

GalNAc(a1-3)Gal = target: GalNAc(a1-3)Gal
Summary of the method: as §1

GalNAc(a1-3)GalNAc = target: GalNAc(a1-3)GalNAc
Summary of the method: as §1

[1] = target: GalNAc(b1-3)Gal(a1-4)Gal(b1-4)GlcNAc
Summary of the method: as §1

GalNAc(b1-4)GlcNAc = target: GalNAc(b1-4)GlcNAc
Summary of the method: as §1

Glc(a1-4)Glc = target: Glc(a1-4)Glc
Summary of the method: as §1

Glc(a1-6)Glc(a1-6)Glc = target: Glc(a1-6)Glc(a1-6)Glc
Summary of the method: as §1

Glc(b1-4)Glc = target: Glc(b1-4)Glc
Summary of the method: as §1

Glc(b1-6)Glc = target: Glc(b1-6)Glc
Summary of the method: as §1

GlcA(b1-3)Gal = target: GlcA(b1-3)Gal
Summary of the method: as §1

GlcA(b1-6)Gal = target: GlcA(b1-6)Gal
Summary of the method: as §1

[2] = target: GlcNAc(a1-3)Gal(b1-4)GlcNAc
Summary of the method: as §1

[3] = target: GlcNAc(a1-6)Gal(b1-4)GlcNAc
Summary of the method: as §1

[4] = target: GlcNAc(b1-2)Gal(b1-3)GlcNAc
Summary of the method: as §1

[5] = target: GlcNAc(b1-2)Man(a1-3)[GlcNAc(b1-2)Man(a1-6)]Man(b1-4)GlcNAc(b1-4)GlcNAc
Summary of the method: as §1

GlcNAc(b1-3)Gal = target: GlcNAc(b1-3)Gal
Summary of the method: as §1

[6] = target: GlcNAc(b1-3)Gal(b1-3)GalNAc
Summary of the method: as §1

GlcNAc(b1-3)Gal(b1-4)Glc = target: GlcNAc(b1-3)Gal(b1-4)Glc
Summary of the method: as §1

[7] = target: GlcNAc(b1-3)Gal(b1-4)GlcNAc
Summary of the method: as §1

[8] = target: GlcNAc(b1-3)Gal(b1-4)GlcNAc(b1-3)Gal(b1-4)GlcNAc
Summary of the method: as §1

GlcNAc(b1-3)GalNAc = target: GlcNAc(b1-3)GalNAc
Summary of the method: as §1

[9] = target: GlcNAc(b1-3)[GlcNAc(b1-4)][GlcNAc(b1-6)]GlcNAc
Summary of the method: as §1

[10] = target: GlcNAc(b1-3)[GlcNAc(b1-6)]Gal(b1-4)GlcNAc
Summary of the method: as §1

[11] = target: GlcNAc(b1-3)[GlcNAc(b1-6)]GlcNAc
Summary of the method: as §1

[12] = target: GlcNAc(b1-4)Gal(b1-4)GlcNAc
Summary of the method: as §1

[13] = target: GlcNAc(b1-4)GlcNAc(b1-4)GlcNAc
Summary of the method: as §1

[14] = target: GlcNAc(b1-4)GlcNAc(b1-4)GlcNAc(b1-4)GlcNAc(b1-4)GlcNAc
Summary of the method: as §1

B1: X56-1 (Clostridium perfringens), P26831 (protein)
chain: MGSSHHHHHHSSGLVPRGSHMASDPNRIIATYISNRQDAPTGNPDNIFDNNASTELVYKNPNRIDVGTYVGVKYSNPITLNNVEFLMGANSNPNDTMQKAKIQYTVDGREWIDLEEGVEYTMPGAIKVENLDLKVRGVRLIATEARENTWLGVRDINVNKKEDSNSGVEF
- glycan array binding signal (z-score) (Gal3S(b1-4)Glc): 0.003
- glycan array binding signal (z-score) (Gal3S(b1-4)Glc6S): 0.301
- glycan array binding signal (z-score) (Gal3S(b1-4)GlcNAc): -0.244
- glycan array binding signal (z-score) (Gal3S(b1-4)GlcNAc6S): 0.127
- glycan array binding signal (z-score) (Gal3S6S(b1-4)GlcNAc): -0.196
- glycan array binding signal (z-score) (Gal3S6S(b1-4)GlcNAc6S): -0.181
- glycan array binding signal (z-score) (Gal4S(b1-4)GlcNAc): -0.067
- glycan array binding signal (z-score) (Gal4S6S(b1-4)GlcNAc): -0.22
- glycan array binding signal (z-score) (Gal6S(b1-4)Glc): -0.189
- glycan array binding signal (z-score) (Gal6S(b1-4)Glc6S): -0.278
- glycan array binding signal (z-score) (Gal6S(b1-4)GlcNAc): 0.38
- glycan array binding signal (z-score) (GalNAc(a1-3)Gal): -0.382
- glycan array binding signal (z-score) (GalNAc(a1-3)GalNAc): -0.016
- glycan array binding signal (z-score) [1]: -0.5
- glycan array binding signal (z-score) (GalNAc(b1-4)GlcNAc): -0.278
- glycan array binding signal (z-score) (Glc(a1-4)Glc): -0.425
- glycan array binding signal (z-score) (Glc(a1-6)Glc(a1-6)Glc): -0.371
- glycan array binding signal (z-score) (Glc(b1-4)Glc): 0.021
- glycan array binding signal (z-score) (Glc(b1-6)Glc): -0.025
- glycan array binding signal (z-score) (GlcA(b1-3)Gal): -0.247
- glycan array binding signal (z-score) (GlcA(b1-6)Gal): -0.246
- glycan array binding signal (z-score) [2]: -0.256
- glycan array binding signal (z-score) [3]: 0.366
- glycan array binding signal (z-score) [4]: 0.418
- glycan array binding signal (z-score) [5]: -0.442
- glycan array binding signal (z-score) (GlcNAc(b1-3)Gal): -0.038
- glycan array binding signal (z-score) [6]: 0.035
- glycan array binding signal (z-score) (GlcNAc(b1-3)Gal(b1-4)Glc): -0.355
- glycan array binding signal (z-score) [7]: -0.395
- glycan array binding signal (z-score) [8]: -0.172
- glycan array binding signal (z-score) (GlcNAc(b1-3)GalNAc): -0.086
- glycan array binding signal (z-score) [9]: -0.04
- glycan array binding signal (z-score) [10]: -0.255
- glycan array binding signal (z-score) [11]: -0.276
- glycan array binding signal (z-score) [12]: -0.371
- glycan array binding signal (z-score) [13]: -0.303
- glycan array binding signal (z-score) [14]: -0.241
